Measured values as given in the supplement of paper PMC12217912.
The other results are listed elsewhere or left out. The full chains were built here from the parent and the listed change. Inactive controls read about 0.05.

B1: TEV protease; numbered along this chain (parent)
chain: MGESLFKGPRDYNPISSSICHLTNESDGHTTSLYGIGFGPFIITNKHLFRRNNGTLVVQSLHGVFKVKDTTTLQQHLVDGRDMIIIRMPKDFPPFPQKLKFREPQREERICLVTTNFQTKSMSSMVSDTSCTFPSGDGIFWKHWIQTKDGQCGSPLVSTRDGFIVGIHSASNFTNTNNYFTSVPKNFMELLTNQEAQQWVSGWRLNADSVLWGGHKVFMVKPEEPFQPVKEATQL

Variants of: B1
Experiment: raw area under fraction-flipped curve 0-4 h after induction (AUC4h, not background-subtracted), DNA-recorder readout of cleavage of the substrate (dimensionless); higher = more cleavage of the substrate by the protease variant
Conditions: temperature: 34 °C; time window: 0-4 h after rhamnose induction
Procedure: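 In vivo DNA recorder in E. coli TOP10(DE3) ΔrhaA at 34 °C. Each TEVp single-site mutant (parent TEVp 0) is paired with a single-site variant of the 7-mer TEVs (canonical ENLYFQ|S). The substrate sits between flexible linkers in a Bxb1-sfGFP-TEVs-SsrA fusion, so cleavage stabilises Bxb1 and speeds flipping of a recombination array, read by NGS. The value is the raw area under the fraction-flipped curve over 0-4 h after rhamnose induction (AUC4h), with ≥20 reads per time point. It is not background-subtracted; inactive controls average about 0.047.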
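Also: Bxb1 expression induced with 0.2% (w/v) L-rhamnose at OD600 near 0.5, cultures sampled hourly, flipped fraction per protease–substrate barcode pair counted by paired-end Illumina sequencing.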

Variant | area with substrate ENLYAQS | area with substrate ENLYCQS | area with substrate ENLYDQS | area with substrate ENLYEQS | area with substrate ENLYGQS | area with substrate ENLYHQS | area with substrate ENLYIQS | area with substrate ENLYKQS | area with substrate ENLYNQS | area with substrate ENLYPQS | area with substrate ENLYQQS | area with substrate ENLYRQS | area with substrate ENLYSQS | area with substrate ENLYTQS | area with substrate ENLYWQS | area with substrate ENLYMQS | area with substrate ENLYVQS | area with substrate ENLYYQS | area with substrate ENLYLQS
S60L | 0.0758 | 0.0823 | 0.0068 | 0.0487 | 0.064 | 0.0693 | 0.112 | 0.0464 | 0.0496 | 0.0244 | 0.061 | 0.0557 | 0.0758 | 0.0793 | 0.0855 |  |  |  | 
H62D | 0.0563 |  | 0.0592 | 0.0752 | 0.0607 | 0.0585 | 0.104 | 0.0578 | 0.0682 | 0.0737 | 0.0571 |  | 0.0756 | 0.0821 | 0.0901 | 0.087 | 0.104 | 0.0775 | 
H62F | 0.0792 |  |  | 0.0627 |  | 0.0697 | 0.144 | 0.0526 | 0.0725 | 0.0738 | 0.07 | 0.0585 | 0.0843 |  | 0.079 |  | 0.042 |  | 
G63Q | 0.0702 | 0.0781 | 0.0483 | 0.0552 | 0.07 | 0.0639 |  | 0.0591 | 0.0512 | 0.0672 | 0.0618 | 0.0508 | 0.0747 |  |  | 0.0802 | 0.109 | 0.065 | 
G63Y | 0.0665 | 0.0771 | 0.0669 | 0.055 | 0.057 | 0.0713 | 0.101 | 0.0658 |  | 0.068 |  | 0.0321 |  | 0.0685 |  | 0.0711 | 0.0825 |  | 
V67L | 0.0802 | 0.0795 | 0.0612 | 0.0614 |  | 0.0712 |  | 0.0501 | 0.0705 |  | 0.0458 |  |  | 0.0813 | 0.0763 | 0.0828 | 0.107 | 0.061 | 0.0811
V67T | 0.0637 | 0.0921 | 0.0701 | 0.0645 | 0.0752 | 0.0648 | 0.0957 | 0.0507 | 0.0666 |  | 0.0878 |  | 0.051 | 0.0679 |  |  | 0.102 | 0.061 | 
K68T | 0.0739 |  |  | 0.0452 | 0.0655 | 0.0655 | 0.0682 | 0.0546 |  | 0.0692 | 0.054 | 0.0532 | 0.0734 |  | 0.0717 |  | 0.0735 | 0.0698 | 
D69L | 0.0595 |  | 0.0693 | 0.0474 | 0.0838 | 0.0616 | 0.0696 | 0.0819 | 0.0568 | 0.0732 | 0.0558 | 0.0598 | 0.0633 | 0.0645 | 0.0679 | 0.0666 | 0.0816 |  | 0.0669
D69W | 0.0758 |  |  | 0.0702 | 0.0416 | 0.0627 |  | 0.0672 | 0.0531 |  | 0.0797 | 0.0364 | 0.07 | 0.0725 |  | 0.0661 | 0.145 |  | 
T70S | 0.0698 | 0.0839 | 0.0595 | 0.0667 | 0.063 | 0.062 | 0.0987 | 0.065 |  | 0.0705 | 0.074 | 0.0752 | 0.067 | 0.0768 |  |  | 0.073 | 0.0808 | 
T72D | 0.0713 |  |  | 0.0661 |  | 0.0645 | 0.117 | 0.0584 | 0.058 | 0.0674 |  |  |  | 0.0726 | 0.0743 | 0.0722 | 0.088 |  | 
L77S | 0.0735 |  | 0.0635 | 0.0654 | 0.0602 | 0.0619 | 0.0778 | 0.0612 | 0.0614 | 0.0598 |  | 0.06 | 0.0619 | 0.058 | 0.0613 | 0.0724 | 0.0737 | 0.059 | 0.0581
V78C | 0.075 | 0.0762 | 0.0669 | 0.0667 | 0.057 | 0.0717 |  | 0.0649 | 0.0628 | 0.0751 | 0.0642 |  | 0.0649 | 0.0699 |  | 0.0816 | 0.103 | 0.0217 | 0.0909
V78S | 0.0752 |  | 0.0584 |  | 0.0568 |  | 0.0834 | 0.0565 | 0.0475 | 0.0743 | 0.0329 | 0.0529 |  | 0.0641 | 0.0785 | 0.039 | 0.0556 | 0.0697 | 0.0689
M83T | 0.0499 |  | 0.067 | 0.0667 | 0.0574 |  | 0.0867 |  | 0.0564 | 0.0483 | 0.0628 | 0.0538 | 0.0775 | 0.0854 | 0.0635 | 0.0463 |  | 0.059 | 
D91A | 0.0746 |  | 0.0618 | 0.0623 | 0.0615 | 0.0649 | 0.124 |  | 0.0661 | 0.0778 | 0.0703 |  | 0.049 |  |  |  | 0.137 |  | 
D91H | 0.0744 | 0.09 | 0.0637 | 0.0801 | 0.0532 | 0.0753 | 0.122 | 0.0563 | 0.0565 | 0.0912 |  | 0.0955 | 0.0818 |  |  | 0.0787 | 0.104 | 0.0605 | 0.098
D91P | 0.102 |  | 0.0473 | 0.0706 | 0.0695 |  |  |  | 0.0659 |  |  |  | 0.0733 |  | 0.087 |  | 0.152 |  | 
K100E | 0.0662 |  |  | 0.071 | 0.062 | 0.0691 | 0.117 | 0.0595 | 0.0715 | 0.0908 | 0.0431 | 0.0572 | 0.071 | 0.0655 | 0.0769 | 0.0888 |  |  | 
K100L | 0.0497 |  |  | 0.0658 |  |  | 0.12 | 0.0181 | 0.0869 | 0.0589 |  |  |  |  | 0.0815 |  | 0.128 | 0.0627 | 0.119
K100V | 0.0592 |  | 0.0619 | 0.0723 | 0.0678 | 0.0711 | 0.0836 | 0.037 | 0.0572 | 0.0751 | 0.0629 | 0.0647 |  |  | 0.0943 |  | 0.107 | 0.0762 | 
R102A | 0.0518 | 0.0587 | 0.0524 | 0.0552 | 0.0595 | 0.0534 | 0.0553 | 0.0534 | 0.057 | 0.0509 | 0.0589 | 0.0663 | 0.0633 | 0.0632 | 0.0743 | 0.0636 |  |  | 
R102C | 0.0539 |  | 0.0509 | 0.051 |  | 0.0527 |  | 0.0723 | 0.0523 | 0.0551 | 0.0388 | 0.0486 | 0.0548 |  | 0.0638 |  | 0.0659 |  | 0.0558
R102T | 0.0496 |  |  |  | 0.058 | 0.0453 |  | 0.0333 | 0.0488 |  |  | 0.0402 | 0.0524 | 0.0672 | 0.0503 | 0.0533 | 0.0506 | 0.0457 | 
E103A | 0.0774 |  |  | 0.0641 | 0.0849 |  |  | 0.0644 |  | 0.0773 |  |  | 0.0758 |  | 0.104 | 0.0843 | 0.102 |  | 
